# From PubChem BioAssay AID1345082 (National Center for Advancing Translational Sciences (NCATS), 2018)
# About 4,000 (4.3%) of roughly 94,000 compounds were called active. Inconclusive means that the source gave no clear call. Such entries were picked first, then a sample of the others. Calls come from the whole dose curve; as a rule, active = well fitted inhibition curve with a large enough effect; inconclusive = small, poorly fitted or top-dose-only effect; inactive = no such curve, though single readings can be large or run the other way. Potencies beside an inconclusive call are fits to weak or partial responses and may not hold up.
# Assay: Cytotoxic Profiling in NIH 3T3 Cell Line of Diverse Libraries Using Quantitative High-Throughput Screening; note: nearly all actives have a fitted effect of over 55% in size
# Conditions: NIH 3T3 viability, CellTiter-Glo ATP luminescence, 48-72 h; series mostly up to 96.7 µM
# How it was run: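 Cytotoxicity was measured by CellTiter-Glo ATP luminescence after 48 or 72 h compound exposure at 37 °C. Mouse NIH 3T3 fibroblasts were seeded at 400 cells/well and dosed by 23 nL pin transfer.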
# Potency is the fitted concentration of half-maximal effect; tags give direction and shape of the fitted curve.
row,SMILES,Potency
1,Cn1ccc2c(C(=O)NCC3CCOCC3)nc(-c3cccc(N4CCOCC4)c3)cc21,"inconclusive: 100 µM [inhibitor, single point]"
2,O=C(NCCc1ccc(Cl)cc1)c1cc(-c2cccc(C(F)(F)F)c2)c2nncn2n1,"inconclusive: 50.1 µM [inhibitor, partial curve, poor fit]"
3,CCOC(=O)C1CCN(C(=O)c2ccc3nnc(C(C)(C)C)n3c2)CC1,inactive
4,O=C(C1CN(c2ccc(F)cc2)C(=O)N1)N1CCN(Cc2ccccc2)CC1 (centres undefined),active: 28.2 µM
5,COc1ccccc1Nc1ccnc(N2CCCC2C(=O)NCc2ccc(F)cc2)n1 (centres undefined),inactive
6,COCCn1c(=O)c2c(n1Cc1ccccc1)CN(Cc1cncc(OC)c1)CC2,"inconclusive: 79.4 µM [inhibitor, partial curve, poor fit]"
7,O=C(Nc1ccc(Cl)cc1)N1CCCC(C(=O)N2CCC(c3nc4ccncc4[nH]3)C2)C1 (centres undefined),inactive
8,O=C(NCc1cccc(C(F)(F)F)c1)C1CCc2nnc(CN[S+](=O)([O-])c3ccccc3Cl)n21 (centres undefined),"inconclusive: 70.8 µM [inhibitor, single point]"
9,C[C@H]1CCCN1C(=O)c1nnc(COc2ccc(C#N)cc2)n1-c1ccccc1,active: 35.5 µM
10,COCCN1CC(CO)C2(CCN(Cc3ccc(Cl)cc3F)CC2)C1 (centres undefined),"inconclusive: 44.7 µM [inhibitor, partial curve, poor fit]"
11,COc1ccc(CCCN2C(=O)O[C@@H]3CN(c4cc(OC)ncn4)C[C@@H]32)cc1,"inconclusive: 3.98 µM [inhibitor, full curve]"
12,O=C1COc2ccc(-c3ccc(F)c(Cl)c3)nc2CN1Cc1nc2ccccc2s1,"inconclusive: 44.7 µM [inhibitor, partial curve, poor fit]"
13,O=C(NCC(F)(F)F)C1CN(c2ccc(F)cc2)C(=O)N1 (centres undefined),inactive
14,Cc1ccc(-c2c(C(=O)Nc3ccc(F)cc3)nc3sccn23)cc1,"inconclusive: 28.2 µM [inhibitor, partial curve, poor fit]"
15,COc1ccc(NC(=O)CN2C(=O)NC3(CCCCC3)C2=O)c(OC)c1,inactive
16,CC(NC(=O)c1ccc(CN2C(=O)NC3(CCOCC3)C2=O)cc1)c1ccccc1 (centres undefined),inactive
17,O=C(C1CCCC1)N1CCC2(CC1)NC(=O)N(c1ccccc1)N2,inactive
18,O=C1CCn2nnc(CNc3cccc(C(F)(F)F)c3)c2CN1Cc1ccccc1,"inconclusive: 79.4 µM [inhibitor, partial curve, poor fit]"
19,O=C(Cc1cccc(Cl)c1)NC1CCN(Cc2ccc(-c3ccsc3)cc2)C1 (centres undefined),active: 8.91 µM
